Laboratory results: US20250368649A1, “TETRAHYDROPYRIDOPYRIMIDINE PAN-KRAS INHIBITORS” (Mirati Therapeutics, Inc., priority 2022, published 2025)

Legend:
KRas G12C = KRas G12C (Homo sapiens, UniProt P01116, G12C); type: binding; conditions: TR-FRET displacement, read-out: Binding to KRas (IC50 nM) G12C
KRas G12S = KRas G12S (Homo sapiens, UniProt P01116, G12S); type: binding; conditions: TR-FRET displacement, read-out: Binding to KRas (IC50 nM) G12S
KRas WT = KRas WT (Homo sapiens, UniProt P01116); assay: KRas binding assay (TR-FRET displacement), KRas WT; conditions: TR-FRET displacement
KRas G13D = KRas G13D (Homo sapiens, UniProt P01116, G13D); type: binding; conditions: TR-FRET displacement, read-out: Binding to KRas (IC50 nM) G13D
KRas G12A = KRas G12A (Homo sapiens, UniProt P01116, G12A); type: binding; conditions: TR-FRET displacement, read-out: Binding to KRas (IC50 nM) G12A
KRas Q61H = KRas Q61H (Homo sapiens, UniProt P01116, Q61H); assay: KRas binding assay (TR-FRET displacement), KRas Q61H; conditions: TR-FRET displacement

Row | SMILES | IC50 (KRas G12C) [nM] | IC50 (KRas G12S) [nM] | IC50 (KRas WT) [nM] | IC50 (KRas G13D) [nM] | IC50 (KRas G12A) [nM] | IC50 (KRas Q61H) [nM]
1 | Nc1nc2c(N3CCc4c(nc(OCC56CCCN5CCC6)nc4N4CCCC5(C4)NC(=O)NC5=O)C3)ccc(F)c2s1 (stereo not drawn) [Example 626, 7-(7-(2-amino-7-fluorobenzo[d]thiazol-4-yl)-2-((tetrahydro-1H-pyrrolizin-7a(5H)-yl)methoxy)-5,6,7,8-tetrahydropyrido[3,4-d]pyrimidin-4-yl)-1,3,7-triazaspiro[4.5]decane-2,4-dione] | 4740 | 4940 | 4070 | 3960 | 5410 | 5210
2 | CCc1cccc2cccc(N3CCc4c(nc(OCC56CCCN5CCC6)nc4N4CCn5nc(P(C)(C)=O)cc5C4)C3)c12 [Example 476, (5-(7-(8-ethylnaphthalen-1-yl)-2-((tetrahydro-1H-pyrrolizin-7a(5H)-yl)methoxy)-5,6,7,8-tetrahydropyrido[3,4-d]pyrimidin-4-yl)-4,5,6,7-tetrahydropyrazolo[1,5-a]pyrazin-2-yl)dimethylphosphine oxide] | 6600 | 7560 | 13600 | 23900 | 8510 | 25400
3 | CC1(O)CCCN(c2nc(OCC34CCCN3CCC4)nc3c2CCN(c2ccc(F)c4sc(N)nc24)C3)C1 (stereo not drawn) [Example 625, 1-(7-(2-amino-7-fluorobenzo[d]thiazol-4-yl)-2-((tetrahydro-1H-pyrrolizin-7a(5H)-yl)methoxy)-5,6,7,8-tetrahydropyrido[3,4-d]pyrimidin-4-yl)-3-methylpiperidin-3-ol] | 16500 | 15500 | 12900 | 11300 | 13000 | 17800
4 | CCc1c(F)ccc2cc(O)cc(N3CCc4c(nc(N5CC(N(C)C)C5)nc4N4CCC[C@@](C)(O)C4)C3)c12 [Example 434, (R)-1-(2-(3-(dimethylamino)azetidin-1-yl)-7-(8-ethyl-7-fluoro-3-hydroxynaphthalen-1-yl) -5,6,7,8-tetrahydropyrido [3,4-d]pyrimidin-4-yl)-3-methylpiperidin-3-ol] | 382 | 405 | 357 | 337 | 362 | 547
5 | CCc1cccc2cccc(N3CCc4c(nc(OCC5(CN(C)C)CC5)nc4N4CCn5ncc(S(N)(=O)=O)c5C4)C3)c12 [Example 524, 5-(2-((1-((dimethylamino)methyl)cyclopropyl)methoxy)-7-(8-ethylnaphthalen-1-yl)-5,6,7,8-tetrahydropyrido[3,4-d]pyrimidin-4-yl)-4,5,6,7-tetrahydropyrazolo[1,5-a]pyrazine-3-sulfonamide] | 1490 | 1900 | 2940 | 3790 | 2210 | 3030
6 | Cc1cc2[nH]nnc2c(N2CCc3c(nc(OCC45CCCN4CCC5)nc3N3C[C@@H]4C[C@H](C3)[C@H](O)C4)C2)c1C [Example 640, (1R,5R,6R)-3-(7-(5,6-dimethyl-1H-benzo[d][1,2,3]triazol-4-yl)-2-((tetrahydro-11H-pyrrolizin-7a(5H)-yl)methoxy)-5,6,7,8-tetrahydropyrido[3,4-d]pyrimidin-4-yl)-3-azabicyclo[3.2.1]octan-6-ol] | 29100 | 19400 | 25700 | 25600 | 21900 | 28200
7 | CCc1cccc2cccc(N3CCc4c(nc(OCC56CCCN5CCC6)nc4C(=O)NC)C3)c12 [Example 591, 7-(8-ethylnaphthalen-1-yl)-N-methyl-2-((tetrahydro-1H-pyrrolizin-7a(5H)-yl)methoxy)-5,6,7,8-tetrahydropyrido[3,4-d]pyrimidine-4-carboxamide] | > 100000 | > 100000 | > 100000 | > 100000 | > 100000 | > 100000
8 | CCc1cccc2cccc(N3CCc4c(nc(OCC56CCCN5CCC6)nc4N4CCCc5[nH]cnc5C4)C3)c12 [Example 477, 5-(7-(8-ethylnaphthalen-1-yl)-2-((hexahydro-1H-pyrrolizin-7a-yl)methoxy)-5,6,7,8-tetrahydropyrido[3,4-d]pyrimidin-4-yl)-1,4,5,6,7,8-hexahydroimidazo[4,5-c]azepine] | 1500 | 2830 | 4940 | 5620 | 2690 | 4400
9 | CCc1cccc2cccc(N3CCc4c(nc(OCC5(CN(C)C)CC5)nc4N4CCCC(c5cn(C)nn5)C4)C3)c12 (stereo not drawn) [Example 522, 1-(1-(((7-(8-ethylnaphthalen-1-yl)-4-(3-(1-methyl-1H-1,2,3-triazol-4-yl)piperidin-1-yl)-5,6,7,8-tetrahydropyrido[3,4-d]pyrimidin-2-yl)oxy)methyl)cyclopropyl)-N,N-dimethylmethanamine] | 289 | 281 | 754 | 1200 | 503 | 1020
10 | CCc1cccc2cccc(N3CCc4c(nc(OCC5(CN(C)C)CC5)nc4N4CCCC(c5nc(N)n(C)n5)C4)C3)c12 (stereo not drawn) [Example 523, 3-(1-(2-((1-((dimethylamino)methyl)cyclopropyl)methoxy)-7-(8-ethylnaphthalen-1-yl)-5,6,7,8-tetrahydropyrido[3,4-d]pyrimidin-4-yl)piperidin-3-yl)-1-methyl-1H-1,2,4-triazol-5-amine] | 385 | 757 | 1910 | 2460 | 441 | 2590
11 | CCc1cccc2cccc(N3CCc4c(nc(OCC56CCCN5CCC6)nc4N4CCC(O)CC(S(C)(=O)=O)C4)C3)c12 (single isomer, unassigned) [Example 480, 1-(7-(8-ethylnaphthalen-1-yl)-2-((tetrahydro-1H-pyrrolizin-7a(5H)-yl)methoxy)-5,6,7,8-tetrahydropyrido[3,4-d]pyrimidin-4-yl)-6-(methylsulfonyl)azepan-4-ol] | 56 | 67 | 52 | 57 | 58 | 61
12 | CCc1cccc2cccc(N3CCc4c(nc(OCC5(CN(C)C)CC5)nc4N4CCOC5COCC5C4)C3)c12 (stereo not drawn) [Example 521, 1-(1-(((7-(8-ethylnaphthalen-1-yl)-4-(hexahydrofuro[3,4-f][1,4]oxazepin-4(5H)-yl)-5,6,7,8-tetrahydropyrido[3,4-d]pyrimidin-2-yl)oxy)methyl)cyclopropyl)-N,N-dimethylmethanamine] | 251 | 690 | 432 | 506 | 438 | 455
13 | CCc1cccc2cccc(N3CCc4c(nc(OCC56CCCN5CCC6)nc4C4CCCOCC4)C3)c12 (stereo not drawn) [Example 478, 7-(8-ethylnaphthalen-1-yl)-2-((hexahydro-1H-pyrrolizin-7a-yl)methoxy)-4-(oxepan-4-yl)-5,6,7,8-tetrahydropyrido[3,4-d]pyrimidine] | 13100 | 17600 | 12600 | 20000 | 12700 | 21300
